Measurements published in PMC6212790.
The list shows a part of the results. At the low end of the ranking the order means little.

target: T1, GST-Rok-C97-191 (UniProt O34857); assay: protein binding microarray; settings: Rok is a gene silencer of Bacillus subtilis; high values mean tight binding; most listed sequences are background and not binding sites; double strand, one strand shown;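 also: rank score from −0.5 (least bound) to 0.5 (best bound)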
T1 sequence: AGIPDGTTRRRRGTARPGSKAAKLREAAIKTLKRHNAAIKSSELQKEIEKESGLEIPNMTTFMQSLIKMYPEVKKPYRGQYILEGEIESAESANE

Sequence	binding signal [E-score]
GTCCTGCA	-0.236
GGGGCGAA	-0.168
CTAATAAG	0.127
TGGGCTAA	-0.0359
AAAACGCA	-0.035
AAGATCCC	0.148
CGAATCCC	-0.203
AGCGGGAG	-0.145
TGATAACA	0.072
GTTCTACA	0.247
CGGTCGGA	-0.214
CAACTGTC	-0.0699
TCACATCA	0.134
TCTTGACA	0.0211
GTGAAACA	-0.0756
CCAGGGCA	-0.237
AGAGGTGA	-0.0938
CGTGCACC	-0.199
GTAGGGCA	-0.0192
ATTAGGCC	0.0349
CGCTTGAC	-0.197
ATGATTGA	0.135

Sequence	binding signal [E-score]
AATCCTTG	0.0297
TCAATGGA	-0.128
CAGAGCCG	-0.393
CATGAGCC	-0.173
ATCGACCC	-0.0066
CGGGAGCA	-0.268
CTATCATA	0.212
TCGGCAGA	-0.13
CAGCCTTA	-0.151
CTGTTATC	-0.15
CACTGTAG	-0.0439
CTTTGTTC	-0.112
ACGGTGGC	-0.177
AGAGGCGA	-0.122
AAGTGGTC	-0.168
CGTTAAAA	0.104
ATTTTGTC	0.145
CAGGCTCG	-0.237
ACATTCAG	0.0804
GTCCTGGA	-0.121
AACAGCTA	0.212
ACATGGCA	0.0362

Sequence	binding signal [E-score]
ATGCACAT	0.141
CTTGCGTC	-0.0557
ACCCAGGG	-0.112
AAGGAAGT	-0.225
CACGGCTG	-0.248
CCCTTAAC	-0.11
CTTTACTC	-0.199
CAGGCCAG	-0.2
CCACTAAG	0.00608
GCCAGGCC	-0.209
GGAGCTCC	0.0246
CAGCAGTA	-0.0875
ATTGTGGG	0.052
CTGACGGA	-0.271
AATTAGAG	0.17
TATGCCCA	-0.134
CATGCTCC	-0.102
TAATTGCA	0.133
CTTCACCC	-0.0668
GGGGGATA	-0.134
ATGGGTAC	0.0396
AAGTGAAT	0.0373

Sequence	binding signal [E-score]
CCCACTCC	-0.161
GCTGAGAA	-0.0968
CAAGGCCA	-0.3
TGCCAACA	0.0271
AATACTCA	0.0071
ATTGGGGG	-0.194
ATAAGCGG	-0.088
AGACACGG	0.126
CCAATATA	0.323
CGATCGAC	-0.0612
ATGCATCG	-0.0373
GATAATGC	0.218
GACTCAGA	-0.0868
AGGTGGAG	-0.3
CTTTGTTA	0.0672
ACAACATA	0.128
AGCTAGAA	0.322
AGTCCCTG	-0.309
ATCCGGGG	-0.204
GCCCTCTA	-0.203
CCATTGGA	-0.127
ATCGTTGG	-0.115

Sequence	binding signal [E-score]
AGGGACCT	-0.14
CAGAGTTA	-0.00404
CCTGCACG	0.0392
AAGTGGCC	-0.135
CAGGTTGC	-0.21
CAATACTA	0.217
ATCCCGGA	-0.094
TAGCAGCA	-0.033
AAGAACCA	0.0725
TCTCGACA	-0.0136
GTAGTACA	0.272
AACTTCAC	-0.0796
AGATTGTG	0.09
CTTATGGC	-0.0994
TCACACCA	0.00467
GACAACTC	-0.0886
CATGCTAC	0.125
ATCCTTGC	-0.136
CCTAGGGC	-0.225
ATATTAGC	0.316
GTCATGAC	-0.101
TATCTGCA	0.0819
